# Data from PMC9911399, “Two distinct binding modes provide the RNA-binding protein RbFox with extraordinary sequence specificity”.
# Residue numbers refer to the chain shown, from its start. The list shows a part of the results.
# T1: RBFOX1 RRM RbFoxmut (Fox-RRM*) (Homo sapiens, UniProt Q9NWB1 109-208, R118D;E147R;N151S;E152T)
# T1 sequence: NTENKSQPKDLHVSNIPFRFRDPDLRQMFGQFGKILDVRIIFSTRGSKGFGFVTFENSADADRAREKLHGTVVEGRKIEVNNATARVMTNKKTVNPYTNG
# B1: GCGCAGC (DNA:RNA)
# RNA: GGGAGACCGGAAUUCAGAUUGUCCGCGCAGCUUAAAUCCCGUCGUAGCCACCA
# DNA 1: CAATCTGAATTCCGGTCTCCC
# DNA 2: TGGTGGCTACGACGGGATT
# B2: ACUCGAC (DNA:RNA)
# RNA: B1 RNA with G25A, G27U, A29G, G30A
# DNA 1: CAATCTGAATTCCGGTCTCCC
# DNA 2: TGGTGGCTACGACGGGATT
# B3: GGCGGGA (DNA:RNA)
# RNA: B1 RNA with C26G, G27C, C28G, A29G, C31A
# DNA 1: CAATCTGAATTCCGGTCTCCC
# DNA 2: TGGTGGCTACGACGGGATT
# B4: UUAGGCG (DNA:RNA)
# RNA: GGGAGACCGGAAUUCAGAUUGUCCUUAGGCGUUAAAUCCCGUCGUAGCCACCA
# DNA 1: CAATCTGAATTCCGGTCTCCC
# DNA 2: TGGTGGCTACGACGGGATT
# B5: AUUGUUG (DNA:RNA)
# RNA: B4 RNA with U25A, A27U, G29U, C30U
# DNA 1: CAATCTGAATTCCGGTCTCCC
# DNA 2: TGGTGGCTACGACGGGATT
# B6: AAGGGGG (DNA:RNA)
# RNA: B4 RNA with U25A, U26A, A27G, C30G
# DNA 1: CAATCTGAATTCCGGTCTCCC
# DNA 2: TGGTGGCTACGACGGGATT
# B7: CGGCUAG (DNA:RNA)
# RNA: B1 RNA with G25C, C26G, A29U, G30A, C31G
# DNA 1: CAATCTGAATTCCGGTCTCCC
# DNA 2: TGGTGGCTACGACGGGATT
# B8: CUCACGA (DNA:RNA)
# RNA: B1 RNA with G25C, C26U, G27C, C28A, A29C, C31A
# DNA 1: CAATCTGAATTCCGGTCTCCC
# DNA 2: TGGTGGCTACGACGGGATT
# B9: UUCGCUG (DNA:RNA)
# RNA: B4 RNA with A27C, G29C, C30U
# DNA 1: CAATCTGAATTCCGGTCTCCC
# DNA 2: TGGTGGCTACGACGGGATT
# B10: AAUCCUU (DNA:RNA)
# RNA: B1 RNA with G25A, C26A, G27U, A29C, G30U, C31U
# DNA 1: CAATCTGAATTCCGGTCTCCC
# DNA 2: TGGTGGCTACGACGGGATT
# B11: AUCUACC (DNA:RNA)
# RNA: B1 RNA with G25A, C26U, G27C, C28U, G30C
# DNA 1: CAATCTGAATTCCGGTCTCCC
# DNA 2: TGGTGGCTACGACGGGATT
# B12: AGUGCUG (DNA:RNA)
# RNA: B4 RNA with U25A, U26G, A27U, G29C, C30U
# DNA 1: CAATCTGAATTCCGGTCTCCC
# DNA 2: TGGTGGCTACGACGGGATT
# B13: UCCAAGG (DNA:RNA)
# RNA: B1 RNA with G25U, G27C, C28A, C31G
# DNA 1: CAATCTGAATTCCGGTCTCCC
# DNA 2: TGGTGGCTACGACGGGATT
# B14: GAAGACU (DNA:RNA)
# RNA: B4 RNA with U25G, U26A, G29A, G31U
# DNA 1: CAATCTGAATTCCGGTCTCCC
# DNA 2: TGGTGGCTACGACGGGATT
# B15: UAAUGCG (DNA:RNA)
# RNA: B4 RNA with U26A, G28U
# DNA 1: CAATCTGAATTCCGGTCTCCC
# DNA 2: TGGTGGCTACGACGGGATT
# B16: AGCACAG (DNA:RNA)
# RNA: B4 RNA with U25A, U26G, A27C, G28A, G29C, C30A
# DNA 1: CAATCTGAATTCCGGTCTCCC
# DNA 2: TGGTGGCTACGACGGGATT
# B17: CGUCCCU (DNA:RNA)
# RNA: B1 RNA with G25C, C26G, G27U, A29C, G30C, C31U
# DNA 1: CAATCTGAATTCCGGTCTCCC
# DNA 2: TGGTGGCTACGACGGGATT
# B18: CGACCAC (DNA:RNA)
# RNA: B1 RNA with G25C, C26G, G27A, A29C, G30A
# DNA 1: CAATCTGAATTCCGGTCTCCC
# DNA 2: TGGTGGCTACGACGGGATT
# B19: GCGGAAU (DNA:RNA)
# RNA: B1 RNA with C28G, G30A, C31U
# DNA 1: CAATCTGAATTCCGGTCTCCC
# DNA 2: TGGTGGCTACGACGGGATT
# B20: UUACUGG (DNA:RNA)
# RNA: B4 RNA with G28C, G29U, C30G
# DNA 1: CAATCTGAATTCCGGTCTCCC
# DNA 2: TGGTGGCTACGACGGGATT
# B21: GCCCUCU (DNA:RNA)
# RNA: B1 RNA with G27C, A29U, G30C, C31U
# DNA 1: CAATCTGAATTCCGGTCTCCC
# DNA 2: TGGTGGCTACGACGGGATT
# B22: ACCGAAG (DNA:RNA)
# RNA: B1 RNA with G25A, G27C, C28G, G30A, C31G
# DNA 1: CAATCTGAATTCCGGTCTCCC
# DNA 2: TGGTGGCTACGACGGGATT
# B23: ACAAACG (DNA:RNA)
# RNA: B4 RNA with U25A, U26C, G28A, G29A
# DNA 1: CAATCTGAATTCCGGTCTCCC
# DNA 2: TGGTGGCTACGACGGGATT
# B24: CGUCUAA (DNA:RNA)
# RNA: B1 RNA with G25C, C26G, G27U, A29U, G30A, C31A
# DNA 1: CAATCTGAATTCCGGTCTCCC
# DNA 2: TGGTGGCTACGACGGGATT
# B25: ACUUGCG (DNA:RNA)
# RNA: B4 RNA with U25A, U26C, A27U, G28U
# DNA 1: CAATCTGAATTCCGGTCTCCC
# DNA 2: TGGTGGCTACGACGGGATT
# B26: UAAUCGG (DNA:RNA)
# RNA: B4 RNA with U26A, G28U, G29C, C30G
# DNA 1: CAATCTGAATTCCGGTCTCCC
# DNA 2: TGGTGGCTACGACGGGATT
# B27: UUUACGU (DNA:RNA)
# RNA: B4 RNA with A27U, G28A, G29C, C30G, G31U
# DNA 1: CAATCTGAATTCCGGTCTCCC
# DNA 2: TGGTGGCTACGACGGGATT
# B28: UGUGGAU (DNA:RNA)
# RNA: B4 RNA with U26G, A27U, C30A, G31U
# DNA 1: CAATCTGAATTCCGGTCTCCC
# DNA 2: TGGTGGCTACGACGGGATT
# B29: ACUCCUU (DNA:RNA)
# RNA: B1 RNA with G25A, G27U, A29C, G30U, C31U
# DNA 1: CAATCTGAATTCCGGTCTCCC
# DNA 2: TGGTGGCTACGACGGGATT
# B30: CACUGCU (DNA:RNA)
# RNA: B4 RNA with U25C, U26A, A27C, G28U, G31U
# DNA 1: CAATCTGAATTCCGGTCTCCC
# DNA 2: TGGTGGCTACGACGGGATT
# B31: CCGCGAA (DNA:RNA)
# RNA: B1 RNA with G25C, A29G, G30A, C31A
# DNA 1: CAATCTGAATTCCGGTCTCCC
# DNA 2: TGGTGGCTACGACGGGATT
# Biological target: T1, RBFOX1 RRM RbFoxmut (Fox-RRM*)
# Assay: EMSA; HiTS-Eq, 1 nM pool, 10 min; buffer printed only for the single-RNA assays: 10 mM Tris pH 7.5, 150 mM NaCl, 3.4 mM EDTA, 0.001% NP-40, 30 C
# Settings: tags: His6 N-terminal (pET28a); label: 5' 32P
# Outline: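 Relative association constants, normalised to the cognate motif, were derived by comparing read counts of each RNA species with those of the control reaction. The RNA sequenced was the free fraction, separated by 8% native PAGE after a 10 min equilibration in 50 µL of 1 nM 5′-radiolabelled RNA (7 randomized nucleotides) with increasing concentrations of purified wild-type or mutant RbFox RRM.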
row,Binder,binding signal
1,B1,0.0767 KA relative to UGCAUGU
2,B2,0.0588 KA relative to UGCAUGU
3,B3,0.0655 KA relative to UGCAUGU
4,B4,0.113 KA relative to UGCAUGU
5,B5,0.19 KA relative to UGCAUGU
6,B6,0.086 KA relative to UGCAUGU
7,B7,0.107 KA relative to UGCAUGU
8,B8,0.0821 KA relative to UGCAUGU
9,B9,0.117 KA relative to UGCAUGU
10,B10,0.0749 KA relative to UGCAUGU
11,B11,0.0752 KA relative to UGCAUGU
12,B12,0.139 KA relative to UGCAUGU
13,B13,0.0683 KA relative to UGCAUGU
14,B14,0.0406 KA relative to UGCAUGU
15,B15,0.0888 KA relative to UGCAUGU
16,B16,0.0544 KA relative to UGCAUGU

row,Binder,binding signal
1,B17,0.0565 KA relative to UGCAUGU
2,B18,0.0643 KA relative to UGCAUGU
3,B19,0.106 KA relative to UGCAUGU
4,B20,0.101 KA relative to UGCAUGU
5,B21,0.0586 KA relative to UGCAUGU
6,B22,0.0896 KA relative to UGCAUGU
7,B23,0.0999 KA relative to UGCAUGU
8,B24,0.105 KA relative to UGCAUGU
9,B25,0.156 KA relative to UGCAUGU
10,B26,0.0737 KA relative to UGCAUGU
11,B27,0.112 KA relative to UGCAUGU
12,B28,0.118 KA relative to UGCAUGU
13,B29,0.0436 KA relative to UGCAUGU
14,B30,0.119 KA relative to UGCAUGU
15,B31,0.0844 KA relative to UGCAUGU
